According to PubChem BioAssay AID624171 (National Center for Advancing Translational Sciences (NCATS), 2012):
Among all 410,000 compounds or so, about 1,200 (0.29%) were called active. Inconclusive means that the source gave no clear call. Such entries were picked first, then a sample of the others. Calls come from the whole dose curve; as a rule, active = well fitted activation curve with a large enough effect; inconclusive = small, poorly fitted or top-dose-only effect; inactive = flat fitted curve, though single readings scatter. Potencies beside an inconclusive call are fits to weak or partial responses and may not hold up.
Potency is the fitted concentration of half-maximal effect; tags give direction and shape of the fitted curve.

Assay: qHTS of Nrf2 Activators; note: nearly all actives have a fitted effect of over 65% in size; for activation: % of control where 0% means no effect
Conditions: AREc32 ARE-luciferase reporter (MCF7-derived line), luminescence, 24 h; activation: at 46.1 µM (top of the series)
Summary of the method: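 Reporter line AREc32 (ARE-Fluc), seeded overnight in OPTI-MEM with 5% FBS; compound pin-transferred, 24 hr at 37 deg C, 5% CO2; luminescent read-out.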
In the case of `COc1cccc(OCc2ccc(Cn3nc(NC(=O)NCCc4ccc(OC)c(OC)c4)c4ccccc43)cc2)c1`, the “activation” value is reported as inactive: 7.51%.
With `O=S(=O)(NCc1csc(-c2cccs2)n1)c1cccc(C(F)(F)F)c1` the Potency was inconclusive: 20 µM [activator, single point].
For `COc1ccc(NC(=O)CSc2ccc(-c3ccco3)nn2)c(OC)c1`, the Potency was inconclusive: 1.41 µM [activator, full curve, poor fit].
For `Cc1c(Cl)cccc1N=c1c([N+](=O)[O-])nn(-c2ccccc2)n1O`, the Potency was inconclusive: 4.47 µM [activator, partial curve].
In the case of `O=C(Nc1ccccn1)c1ccc(Cl)c([N+](=O)[O-])c1`, the Potency is reported as active: 10 µM.
In the case of `Cc1ccc(O)c(NC(=O)c2noc3c2CCCC3)c1`, the Potency is reported as active: 7.94 µM.
In the case of `O=C1/C(=C/c2cccs2)Sc2ccccc21`, the Potency is reported as inconclusive: 10 µM [activator, partial curve].
In the case of `COC(=O)c1ccc2nc(-c3ccc(Cl)cc3)c(CC3CCCCC3)n2c1`, the Potency is reported as inconclusive: 7.08 µM [activator, partial curve].
For `Cc1ccccc1NC(=O)c1cccc2c(=O)c3c([nH]c12)CCCC3`, the “activation” value was inactive: -1.76%.
For `Cn1c(SCCOc2ccccc2F)nc2ccccc2c1=O`, the Potency was inconclusive: 12.6 µM [activator, single point].
In the case of `O=C(Nc1ccc(F)c(Cl)c1)C1CCN(S(=O)(=O)c2ccc3[nH]c(=O)ccc3c2)CC1`, the “activation” value is reported as inactive: 4.55%.
In the case of `CCOC(=O)c1cc2c(=O)n3cccc(C)c3nc2n(Cc2ccco2)c1=NC(=O)c1cccnc1`, the “activation” value is reported as inactive: 2.69%.
In the case of `CCOc1ccccc1-n1nnc(-c2nc(-c3ccccc3C)no2)c1C`, the “activation” value is reported as inactive: 3.9%.
For `Cc1sc2ncnc(SCC(=O)c3cccs3)c2c1C`, the Potency was active: 14.1 µM.
In the case of `COc1cc(NC(=O)CSc2nnnn2Cc2ccccc2)cc(OC)c1`, the “activation” value is reported as inactive: 1.12%.
With `O=c1oc(/C=C/c2ccco2)nc2sc3c(c12)CCC3` the Potency was inconclusive: 20 µM [activator, single point].
For `Cn1c(=O)n(C)c2cc(C(=O)Nc3ccc4c(c3)OCO4)ccc21`, the Potency was inconclusive: 22.4 µM [activator, partial curve, poor fit].
With `O=S(=O)(c1ccc(Cl)cc1)c1snnc1-c1ccccc1` the Potency was inconclusive: 3.16 µM [activator, partial curve, poor fit].
For `CN(C)S(=O)(=O)c1cc(NC(=O)CN2CCN(c3ccc(O)cc3)CC2)ccc1Cl`, the “activation” value was inactive: 0.136%.
For `Cc1cccc(NC(=O)c2cc3c(=O)n4cccc(C)c4nc3s2)c1C`, the “activation” value was inactive: 2.4%.
In the case of `Cc1cc(NCCCn2ccnc2)n2nc(C)c(-c3ccc(Cl)cc3)c2n1`, the “activation” value is reported as inactive: 6.81%.
In the case of `CCn1c2ccccc2c2c3ncc4cccn4c3ccc21`, the Potency is reported as active: 12.6 µM.
With `Fc1ccc(Nc2nc(-c3ccncc3)nc3ccccc23)cc1F` the “activation” value was inactive: 3.2%.
With `Clc1ccc2ccc3cccnc3c2n1` the “activation” value was inactive: 0.361%.
In the case of `O=C(Nc1nc(-c2ccccc2)cs1)c1ccco1`, the Potency is reported as active: 14.1 µM.
With `Cc1ccc2nc(Cl)c3nnnn3c2c1` the Potency was inconclusive: 4.47 µM [activator, full curve].
With `COc1cc(C)nc2nc(SCc3ccccc3)nn12` the Potency was inconclusive: 31.6 µM [activator, single point].
With `COc1ccccc1C=C1CCc2ccccc2C1=O` the Potency was inconclusive: 10 µM [activator, partial curve, poor fit].
With `CC1CC(C)CN(C(=O)COC(=O)/C=C/c2ccco2)C1` (stereo not drawn) the Potency was active: 14.1 µM.
In the case of `CC(C)c1nc2oc3ccccc3c(=O)c2c(=O)n1-c1ccccc1`, the Potency is reported as inconclusive: 6.31 µM [activator, partial curve, poor fit].
In the case of `O=C(COC(=O)C1CCN(S(=O)(=O)c2cc([N+](=O)[O-])ccc2Cl)CC1)Nc1ncc(Cl)cc1Cl`, the Potency is reported as inconclusive: 20 µM [activator, single point].
With `CCc1cc(C(c2cccc(OC)c2)N2CCOCC2)c(NC(=O)c2ccccc2)s1` (stereo not drawn) the Potency was inconclusive: 20 µM [activator, single point].
With `Cc1ccc(C(CC(=O)c2ccco2)SCCO)cc1` (stereo not drawn) the Potency was inconclusive: 28.2 µM [activator, single point].
For `CCOc1cc(/C=C/C(=O)c2ccc(OC)c(CN3CCOCC3)c2)cc(Br)c1O`, the Potency was inconclusive: 31.6 µM [activator, single point].
For `CCOC(=O)/C=C1\Nc2ccccc2OC1=O`, the Potency was inconclusive: 17.8 µM [activator, partial curve, poor fit].
For `CC1CCN(CCc2nc3cc(NS(=O)(=O)c4ccccc4)ccc3n2C)CC1`, the Potency was inconclusive: 31.6 µM [activator, single point].
For `CCOC(=O)c1cccnc1SCc1cc(=O)n2ccccc2n1`, the Potency was inconclusive: 5.62 µM [activator, partial curve].
For `COC(=O)C1=C(C)NC(=O)/C1=C\c1cccs1`, the Potency was inconclusive: 15.8 µM [activator, partial curve, poor fit].
In the case of `CCOC(=O)/C(=C\c1ccccc1)C(=O)c1cc(C(C)=O)c(Nc2ccccc2)s1`, the Potency is reported as inconclusive: 5.62 µM [activator, single point].
For `Oc1ccc(/C=N/Nc2cccc3cccnc23)c(O)c1`, the Potency was inconclusive: 3.98 µM [activator, single point].
In the case of `CCCN1C(=O)SC(CC(=O)Nc2ccc(C)cc2)C1=O` (stereo not drawn), the Potency is reported as inconclusive: 35.5 µM [activator, single point].
In the case of `COCC(=O)N1C[C@H]2CON(C)[C@H]2C[C@H]1c1cccc(-c2ccccc2OC)c1`, the “activation” value is reported as inactive: -0.256%.
With `CCc1ccc(NC(=O)COC(=O)/C=C/c2ccco2)cc1` the Potency was inconclusive: 22.4 µM [activator, single point].
With `N#Cc1nc(NCC(F)F)nc(Nc2cc(F)cc(F)c2)n1` the Potency was inconclusive: 3.55 µM [activator, single point].
With `CCOC(=O)COc1ccccc1/C=C\[N+](=O)[O-]` the Potency was inconclusive: 3.98 µM [activator, single point].
In the case of `COc1cccc2cc(C(=O)Nc3ccccc3C)/c(=N/O)oc12`, the Potency is reported as inconclusive: 15.8 µM [activator, partial curve, poor fit].
In the case of `CC1(C)CC(N2CCOCC2)=CC(=[N+]2CCOCC2)C1`, the “activation” value is reported as inactive: -0.852%.
In the case of `CN(C(=O)CSc1nncn2c1cc1occc12)c1ccccc1`, the Potency is reported as inconclusive: 31.6 µM [activator, single point].
In the case of `O=C(Nc1ccc2ccccc2n1)c1ccccc1Cl`, the Potency is reported as inconclusive: 28.2 µM [activator, single point].
For `COc1ccc(-c2cn3cccnc3n2)cc1NC(=O)c1ccccc1C(F)(F)F`, the “activation” value was inactive: 1.28%.
In the case of `O=C(NC(=S)Nc1ccccc1N1CCCCC1)c1ccco1`, the “activation” value is reported as inactive: 10.4%.
For `CC(C)c1ccc(-c2noc(SCC(=O)N3CCN(c4ccccc4F)CC3)n2)cc1`, the “activation” value was inactive: -0.916%.
In the case of `O=C(Cn1ncc(Cl)c(Cl)c1=O)NC1CCS(=O)(=O)C1` (stereo not drawn), the Potency is reported as inconclusive: 2.82 µM [activator, full curve, poor fit].
For `COc1ccccc1CNC(=O)COC(=O)c1cc(-c2ccco2)nc2ccccc12`, the Potency was inconclusive: 1.26 µM [activator, full curve, poor fit].
For `O=C(c1cc(-c2ccco2)on1)N1CCc2ccccc2C1`, the Potency was active: 14.1 µM.
With `O=C(Nc1ccccc1F)c1cc(-c2ccco2)nc2ccccc12` the Potency was inconclusive: 1.58 µM [activator, full curve, poor fit].
In the case of `O=C(c1ccccc1)c1nn(-c2ccccc2)c(=O)cc1C(F)(F)F`, the Potency is reported as inconclusive: 17.8 µM [activator, single point].
With `CN(C)CCNC(=O)c1cccc2ccc(-c3ccc(-c4ccccc4)cc3)nc12` the Potency was active: 4.47 µM.
With `CCCn1c(CCNC(=O)c2cccs2)nc2ccccc21` the Potency was inconclusive: 12.6 µM [activator, single point].
In the case of `O=C(O)CCNc1nc(-c2ccccc2)nc2ccccc12`, the Potency is reported as inconclusive: 17.8 µM [activator, single point].
For `CC(=O)Nc1ncc(N=Nc2cccc(C(F)(F)F)c2)s1`, the Potency was inconclusive: 1 µM [activator, full curve, poor fit].
With `Cc1cccc(NC(=O)CCCN2C(=O)C3CC=CCC3C2=O)c1` (stereo not drawn) the “activation” value was inactive: 0.127%.
In the case of `COc1cc(/C=C/C(=O)NC(=O)c2ccccc2O)ccc1O`, the Potency is reported as inconclusive: 14.1 µM [activator, single point].
With `Cc1cc(C)c2nc(NC(=O)c3ccco3)sc2c1` the Potency was inconclusive: 2.82 µM [activator, full curve, poor fit].
In the case of `Cc1nn(-c2ccccc2)c(Oc2ccccc2)c1C=O`, the Potency is reported as inconclusive: 22.4 µM [activator, single point].
With `COc1cc(OC)nc(NC(=S)NC(=O)c2ccccc2)n1` the Potency was active: 11.2 µM.
For `O=C(C(Cl)c1ccccc1)N1CCCC1` (stereo not drawn), the Potency was inconclusive: 17.8 µM [activator, single point].
In the case of `N#C/C(=C\Nc1ccccc1O)c1nc2ccccc2o1`, the Potency is reported as inconclusive: 0.891 µM [activator, full curve, poor fit].
For `NC(=O)c1ccsc1NC(=O)COC(=O)[C@@H]1CCCN1C(=O)c1cccs1`, the Potency was inconclusive: 7.94 µM [activator, partial curve].
With `CN(C)CCC(=O)N1c2ccccc2Sc2ccc(Cl)cc21` the Potency was inconclusive: 20 µM [activator, single point].
With `Cc1cc2ccccc2n1CCNC(=O)c1cccs1` the Potency was inconclusive: 3.98 µM [activator, full curve].
For `O=C(CSc1nc(=O)n2ccccc2n1)Nc1cccc2ccccc12`, the Potency was inconclusive: 11.2 µM [activator, partial curve].
In the case of `COc1ccc(NC(=O)Nc2ccc(O)c3ccccc23)cc1`, the “activation” value is reported as inactive: -2.9%.
